Experimental findings from the supplement of paper PMC11417369 are described below.

± gives the standard deviation of the averaged measurements. The list shows a part of the results.

This experiment has as its system PfAP2-G AP2 domain (GST-tagged). Briefly: gcPBM binding intensity (ln(normalized median fluorescence intensity)); higher = stronger DNA binding. Summed up: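 Binding intensity is the highest Masliner-normalised natural-log median intensity over replicate spots in either probe orientation. To obtain it, GST-tagged P. falciparum DNA-binding domains made in E. coli were incubated for 1 h on an Agilent 4 × 180k array of primer-extended double-stranded 36-bp intergenic genomic probes plus negative controls. Detection used Alexa488 anti-GST antibody with scanning at 488 nm.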
“AAGAAAATGTAGAATTAGAAATAAATGAAGAAATGA [TGCATGCA_negctrl_site548]”: the “gcPBM binding intensity (ln)” value was 9.795 ± 0.021.
The value for AGTAGATTTTTATTAGTGCATTTTATACTACAAAAA was 10.1 ± 0.11; that for “TATATGTTTAATTTCACACACAAATATACATTTTAA [CACACA_site4171]” was 9.91 ± 0.085.
For “TATCCCTTAGAATACACACCCATATGAGGGTGAACT [CACACA_site5610]” the value was 10 ± 0.11; for “CTTAATGATAAATACATACACACAAAAAATAATATA [CACACA_site2577]”, 10 ± 0.028; for “ATATTTATTTATATCATACACACTAATATGTATATT [CACACA_site7576]”, 9.97.
For “TTTTAAAACAATGAGATTCCTTTCTTTTTTTCTTTT [CACACA_negctrl_site1320]” the value was 9.5 ± 0.085; for “ATATTCTCTTAAATATGTACGTATGTATATATATAT [XGTACX_site5885]”, 11.3 ± 0.94.
On to “CGCAAAACAATGATACGTACATATATATATATATAT [XGTACX_site5883]”, for which the “gcPBM binding intensity (ln)” value came to 11.4 ± 0.92.
The value for “TTTTTAATTTTATATACACACATAAAAGATATGAAG [CACACA_site7470]” was 10 ± 0.4.
For “ATTCTTAAATGTGGTTGTACATATTATCACCTTTAA [XGTACX_site8188]” the value was 11.2 ± 0.71; for “AATGTACGCATATACACACACATAAATAGATACGTA [CACACA_site3406]”, 11.5 ± 1.
As to “AACGAAAACACTACGTGTACCAAACGTCCTACCAAC [XGTACX_site257]”, the “gcPBM binding intensity (ln)” value was 11.2 ± 0.53.
Take “AATAGTTAAATACATACATGCATTCATATAATATAT [TGCATGCA_site433]”: the “gcPBM binding intensity (ln)” value stood at 9.89 ± 0.13.
The value for “TAATTAAGAATATATAGTACATAGTTGAAAAACTTT [XGTACX_site6359]” was 10.8 ± 0.46.
The value for “AAGATAAAAATATGCACACATATATATATATATATA [CACACA_site404]” was 9.97 ± 0.3; that for “TTCAAAAAATATATCTGTACAAATTATGTAGATGAA [XGTACX_site5522]” was 10.8 ± 0.48; that for “TAGATCATAACAATTGCACACATTTGCATTTATATT [CACACA_site1562]” was 9.9 ± 0.071.
The value for “TTTTTACTTATTTATTATGTACAATTTCTTCTTTCT [CACACA_negctrl_site264]” was 10.9 ± 0.66; that for “TTTTTTTTTTTTTTTTTTTTACGATATATTTTAAAA [XGTACX_negctrl_site401]” was 9.63 ± 0.39.
Consider “TCTTATAAATTAAATATAAAAAAAAAAAAAAAAAAA [XGTACX_negctrl_site77]”, for which the “gcPBM binding intensity (ln)” value was 9.45 ± 0.38.
For “TTTGTTGGTATGGTTACACACATTTAGGAAATAAAA [CACACA_site1411]”, the “gcPBM binding intensity (ln)” value is 10.4 ± 0.34.
Turning to “AAAATAATTCAATGTAGTACAATACAAATTGAGAGA [XGTACX_site5991]”, the “gcPBM binding intensity (ln)” value was found to be 11.5 ± 1.
For “AAAATTATACACACACGTACATATAAATAGAAATAT [XGTACX_site1753]” the value was 11.3 ± 0.89.
Regarding “AGTATTTTGTTTATCACACATATTGGAATTTTCAAT [CACACA_site4686]”, the “gcPBM binding intensity (ln)” value was found to be 10.03 ± 0.028.
The value for “ATATTAAAAAAATATAAACACACAAAAAAAAAATAT [CACACA_site8283]” was 9.98 ± 0.014.
For “TATTCAAAGAAAAACTGTACGTGTAGCAAACGTCAT [XGTACX_site7713]” the value was 11.5 ± 0.83; for “GGTGTTTTTCACAGATGTACACAAATAAAAAAGAAA [XGTACX_site4454]”, 11.6 ± 0.71; for “TATATATAAAAAAAAAGTACATATAATATAATATTT [XGTACX_site7902]”, 11.5 ± 1.
For “AAATGGACAGTATAAAAATGGAGAATATAAAAATTT [CACACA_negctrl_site889]” the value was 10.3 ± 0.36; for “CCTTTTTATTTTTGTAGTACTACATATACATATCTG [XGTACX_site7791]”, 11.5 ± 0.88.
As for “AAAAAAAAAAAAAATAAATAAATAAATAAATATATA [GTGCAC_negctrl_site382]”, the “gcPBM binding intensity (ln)” value was found to be 9.5 ± 0.37.
The value for “TTTTTATAACAGCTTAGTACATATAAGAATTCTTGC [XGTACX_site5890]” was 10.7 ± 0.54.
The value for “GACCCCATATACATATGTACATACATAATATATATA [XGTACX_site1817]” was 11.1 ± 0.73; that for “ATATATATTTTAATTACACACAAAAAAAAAAAAAAA [CACACA_site4778]” was 9.81 ± 0.47.
For “CTAATTGTTATTTTGTGTACTTATCATTCGAAATAT [XGTACX_site7963]” the value was 11.6 ± 0.96.
As for “AAAAAACAAATAAGTAAACACACATATATAATATAT [CACACA_site8830]”, the “gcPBM binding intensity (ln)” value was 9.975 ± 0.035.
Turning to “TAGATGTAAGTACATACACACATATATAAATAAATA [CACACA_site8528]”, the “gcPBM binding intensity (ln)” value came to 11.4 ± 0.98.
As for “GTCATATATTTATGTACACACATATATATATTTATA [CACACA_site4911]”, the “gcPBM binding intensity (ln)” value was 11.3 ± 0.91.
For “AAAAAAAAAAAAAATACACACATATTTTATAGGGGA [CACACA_site3261]” the value was 10 ± 0.18; for “TATTTTTTGAAAAGTTCACACATCCAACTCGAGTTG [CACACA_site4412]”, 10.5 ± 0.3.
Consider “AAAATAATGAAATGAAAAAAAAAAATTTAGATTCTA [CACACA_negctrl_site1385]”, for which the “gcPBM binding intensity (ln)” value is 9.3 ± 0.37.
For “TTATATATTTTTAGGTGTACTTTTTTTTTTTTTTTT [XGTACX_site8164]” the value was 11.7 ± 0.91; for “TATGAATATCTATACACACACATATAAATACACGCT [CACACA_site6853]”, 10.3 ± 0.28.
For the sequence “AGGATATATATATTCACACACACATGGAAATATATA [CACACA_site383]”, the “gcPBM binding intensity (ln)” value is 9.91 ± 0.028.
Take “ATATATATTTTATATTGTACTTATTATTTTTAGGGC [XGTACX_site723]”: the “gcPBM binding intensity (ln)” value is 11.4 ± 0.81.
For the sequence “TATTTTGCAAAATGTGCATGTTGTGTATTATGTGAC [TGCATGCA_site59]”, the “gcPBM binding intensity (ln)” value is 10.3 ± 0.21.
For “CATATGTTATATGTAGTGCATTACTATAGGATTTAT [GTGCAC_site9860]” the value was 10.4 ± 0.28; for “TCATTTATTTTTCTTTGTACACAAAAGTTTTTATGT [XGTACX_site690]”, 11.4 ± 0.9.
The value for “GTATAATTGGAAATTACACACCTTAGAATGTAACAT [CACACA_site4059]” was 9.97 ± 0.014; that for “ATTATAATATATATATGTACATATATATATAATACT [XGTACX_site5092]” was 11.2 ± 0.67.
The value for “TATAATATACTATGTGGTACATATATATATTTATAG [XGTACX_site4556]” was 11.2 ± 0.85.
Regarding “ATATATAATATTGGTGGTACAAGGGTATTTTATATT [XGTACX_site8215]”, the “gcPBM binding intensity (ln)” value was determined as 11.3 ± 0.79.
The value for “TCTTTAGCTTCTTCTTTTTTTTTTTTTTTTTTTTTT [XGTACX_negctrl_site518]” was 10.8 ± 0.38; that for “ATATATATATATATATGTACATAAACATATATATAT [XGTACX_site1064]” was 11.5 ± 1.1; that for TGGTATGCAATATTGGTGCGTATATATTTTAAAGGG was 10.3 ± 0.16.
Regarding “TATTTTTAATTTTTTAATGGTTTAATATTTTTATAT [CACACA_negctrl_site1186]”, the “gcPBM binding intensity (ln)” value stood at 9.69 ± 0.13.
Take “TATTCTAAGATAAGTGGTACTTATATATAATATATA [XGTACX_site8316]”: the “gcPBM binding intensity (ln)” value was determined as 11 ± 0.64.
For “AATATATGGTTTCTTGATATTAAATTCAATTTAATG [CACACA_negctrl_site69]” the value was 9.995 ± 0.035; for “TGAAAAATATAAGGTTGTACTTACATCGGGAATAAT [XGTACX_site4701]”, 11.3 ± 0.83; for “AATTATGTGTGTCAATGTACACGATTTACATAATAT [XGTACX_site5150]”, 11.3 ± 0.93.
For “ATCCGTGGGTGAAATACACACATGATAATGTGAATG [CACACA_site4662]” the value was 9.995 ± 0.064; for “ATAAATGAACAAGTGGCACACACACCGTATAACTAA [CACACA_site9047]”, 10.3 ± 0.21.
Regarding “TATATCTTAATATTTACACACATGCGCACCCATAAA [CACACA_site5349]”, the “gcPBM binding intensity (ln)” value was found to be 10.6 ± 0.52.
Turning to “AAAAAAAAAAAAAAAAGTACATATAATAAATAATGA [XGTACX_site7931]”, the “gcPBM binding intensity (ln)” value was 11.6 ± 1.
The value for “TAAGTATATATATTTACACACATTTGTTTTTTTTTA [CACACA_site3784]” was 9.79 ± 0.028.
For “TTTTAAATACTTTATTGTACATTATATATATATATA [XGTACX_site7021]” the value was 11 ± 0.59.
For “AATCTTTGTAATAAAAGTACATTAATTTTATTAATA [XGTACX_site8325]” the value was 11.3 ± 1; for “ACACATACAACGTGGTGTACAAATAATTATAATCAA [XGTACX_site2287]”, 11.1 ± 0.4; for “GTTATAATTGAACTAGTGCATAAATATATTTTAATT [GTGCAC_site9851]”, 10.3 ± 0.16.
On to “AATTCTGGCAAAATAACACACACATATATTTTATAT [CACACA_site9064]”, for which the “gcPBM binding intensity (ln)” value was determined as 10 ± 0.028.
As to “TATCTTTTTTTTAATACACACAAATATATGAAAGTA [CACACA_site4161]”, the “gcPBM binding intensity (ln)” value was found to be 10.2 ± 0.18.
For “ATGTGTATATGTGTGGGTACTTAATTTTTTTCTTTA [XGTACX_site5351]” the value was 11.2 ± 0.6.
The value for “CGTATTATTATATAAACACACAAGGGGGCATGTATA [CACACA_site745]” was 11.2 ± 0.71; that for “ATATAAACACTGAATGCATGCACATATATATATATA [TGCATGCA_site940]” was 10.2 ± 0.26; that for “GGGGGGGGAGGGTGAATACACACGTAATAATCATAA [CACACA_site1716]” was 11.6 ± 0.94.
The value for “TTTTTTTTTACTAACTGTACTAAAGAAAAAAAAGGG [XGTACX_site3519]” was 11.4 ± 0.79.
Take “ATAAAGGAATTTTATACACACAACATATATATATAT [CACACA_site2861]”: the “gcPBM binding intensity (ln)” value is 10.1 ± 0.38.
Regarding “TTTCGTAAACTTTATGCACACACATATACATATTTC [CACACA_site8146]”, the “gcPBM binding intensity (ln)” value turned out to be 10.2 ± 0.16.
For “ATTTGTATATACATATGTACACATGTAGGCTCATAA [XGTACX_site1709]” the value was 11.4 ± 0.84.
With “TATAATAATATTTACACACGCATATGTTATATATAT [CACACA_site1477]”, the “gcPBM binding intensity (ln)” value was determined as 9.93 ± 0.071.
The value for “TACAAATGCGTATGTCAATATATGGAGAAATAAATA [TGCATGCA_negctrl_site290]” was 10.1 ± 0.16.
Turning to “TGTATATGGTTTGTGCAAAAATTTATTAATGTGTAA [TGCATGCA_negctrl_site374]”, the “gcPBM binding intensity (ln)” value is 10.07 ± 0.028.
Take TTTGAATACTGAATGGTGCAAATTGTTCTCCCCATG: the “gcPBM binding intensity (ln)” value came out at 10.3 ± 0.23.
Turning to “AGTATAACTTTTGCGCGTACACACATTTATCCTCTT [XGTACX_site429]”, the “gcPBM binding intensity (ln)” value was 11.6 ± 0.72.
With “TATATTAAAATAATCACACACATCAATTAATGGTAA [CACACA_site1234]”, the “gcPBM binding intensity (ln)” value was 9.81 ± 0.014.
The value for “TAAATAAAAGATACGAGTACGTATGATGTTAACCTC [XGTACX_site8840]” was 11.2 ± 0.8.
The value for “GAACGAAATAAGTGTGTGCACATGTAACCACAAATC [GTGCAC_site9829]” was 10.9 ± 0.34.
Regarding “CAATATTTTCATAGATGTACTTTGGACTTATTATAT [XGTACX_site4849]”, the “gcPBM binding intensity (ln)” value turned out to be 11.3 ± 0.84.
